Here are results for 45 compounds from article PMC4336329 (PLoS ONE, 2015).

Out of some 310,000 compounds screened, about 2,200 (0.71%) showed an effect of 50% or more. Effects have a minus sign here. The list shows a part of the results. Where a SMILES comes first, the peptide text is derived from it. The star is where a group is joined. Cbz = O=C(OCc1ccccc1)*

Chain of human ether-à-go-go-related gene (hERG) potassium channel (Q12809 whole entry, looked up): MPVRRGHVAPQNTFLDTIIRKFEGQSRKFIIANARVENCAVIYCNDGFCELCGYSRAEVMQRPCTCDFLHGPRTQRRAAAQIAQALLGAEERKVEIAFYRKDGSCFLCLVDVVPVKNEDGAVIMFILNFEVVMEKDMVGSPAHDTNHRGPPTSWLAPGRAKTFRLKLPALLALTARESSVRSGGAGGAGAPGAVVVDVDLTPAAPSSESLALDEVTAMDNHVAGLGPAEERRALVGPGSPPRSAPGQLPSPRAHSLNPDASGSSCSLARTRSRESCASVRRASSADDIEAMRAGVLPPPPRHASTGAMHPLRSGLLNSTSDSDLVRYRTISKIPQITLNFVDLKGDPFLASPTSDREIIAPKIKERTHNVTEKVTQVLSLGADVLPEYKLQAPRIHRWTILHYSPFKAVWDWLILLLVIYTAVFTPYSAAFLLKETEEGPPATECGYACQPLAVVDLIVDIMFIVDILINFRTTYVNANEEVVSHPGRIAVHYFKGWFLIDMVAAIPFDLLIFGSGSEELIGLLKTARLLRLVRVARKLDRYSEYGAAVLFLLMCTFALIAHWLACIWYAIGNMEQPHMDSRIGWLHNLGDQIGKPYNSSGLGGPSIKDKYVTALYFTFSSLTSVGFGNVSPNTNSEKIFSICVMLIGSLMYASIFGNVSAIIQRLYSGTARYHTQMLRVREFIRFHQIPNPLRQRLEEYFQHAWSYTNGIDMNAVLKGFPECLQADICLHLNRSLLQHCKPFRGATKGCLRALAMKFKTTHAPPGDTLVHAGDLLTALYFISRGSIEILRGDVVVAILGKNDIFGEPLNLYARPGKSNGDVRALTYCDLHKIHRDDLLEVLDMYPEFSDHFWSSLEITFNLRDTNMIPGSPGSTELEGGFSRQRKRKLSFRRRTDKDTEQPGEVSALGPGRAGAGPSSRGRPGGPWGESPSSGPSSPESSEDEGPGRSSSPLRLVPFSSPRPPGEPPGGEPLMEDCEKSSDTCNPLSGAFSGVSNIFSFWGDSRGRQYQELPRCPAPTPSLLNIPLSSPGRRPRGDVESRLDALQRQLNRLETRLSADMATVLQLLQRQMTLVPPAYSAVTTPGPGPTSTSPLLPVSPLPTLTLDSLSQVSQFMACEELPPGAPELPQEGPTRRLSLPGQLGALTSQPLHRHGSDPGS

The assay addresses human ether-à-go-go-related gene (hERG) potassium channel (human, UniProt Q12809). Put plainly: primary screen, population patch clamp on CHO cells stably expressing hERG.
For `Cc1ccccc1CN1CCN(Cc2cc3ccccc3o2)CC1CCO` (stereo not drawn), the “hERG current change (%, negative = inhibition) at 1uM” value was 8.86%.
To `COc1ccc(CNC(=O)CN(C(=O)c2csnn2)c2ccc3c(c2)OCCO3)cc1` belongs 7.47%.
With `COC(=O)C1C(=O)C2=C(CC1C)Nc1ccccc1NC2c1ccc(C)s1` (stereo not drawn) the figure was 12.8%.
With `Cc1cc(C)c(NC(=O)CCc2c(C)noc2C)c(C)c1` the figure was 17.9%; with `Cc1ccc2c(Cl)cc(Cl)c(OCC(=O)OCC(=O)Nc3ccc(C#N)cc3)c2n1`, 6.52%.
On to `O=C1NC(=O)c2cc(Oc3ccc([N+](=O)[O-])cc3)ccc21`, for which the “hERG current change (%, negative = inhibition) at 1uM” value is listed as 10.6%.
With `CN(C)c1ccc(NS(=O)(=O)c2ccc(Cl)cc2)cc1` the figure was 6.28%; with `O=C(NCCN1CCN(c2ccccc2)CC1)c1cccc(Br)c1`, -23.2%; with `COc1ccc(-c2[nH]ncc2CN(C)CC2CCCCO2)cc1F` (stereo not drawn), 9.98%.
With `C=CCN(c1ccc(C(=O)NC(C)C)cc1)S(C)(=O)=O` the figure was -9.08%; with `COc1ccc(N(CC(=O)NCCSc2ccccn2)S(=O)(=O)c2ccccc2)cc1OC`, 11.9%; with `COc1cccc(N2CCN(C(=O)c3ccc(-c4ccccc4)cc3)CC2)c1`, -34.4%.
With `COC(=O)c1ccc(OCC(O)CN2CCN(C(=O)c3ccco3)CC2)cc1.O=C(O)C(=O)O` (stereo not drawn) the figure was 1%.
`CC(C)[C@H](NC(=O)OCc1ccccc1)C(=O)N[C@@H](Cc1c[nH]c2ccccc12)C(=O)O` (Cbz-Val-Trp-OH): the “hERG current change (%, negative = inhibition) at 1uM” value stood at 4.26%.
Take `O=C(Nc1ccc(N2CCN(C(=O)c3ccccc3F)CC2)cc1)c1ncn[nH]1`: the “hERG current change (%, negative = inhibition) at 1uM” value is given as -0.254%.
To `Br.COc1ccc(NC2=NCCCCC2)cc1` belongs 16%; to `CCCCC(=O)Nc1ccc(NC(=O)CC)cc1OC`, 10.7%; to `Cc1ccc(C2(C)NC(=O)N(CC(=O)Nc3cc(C)on3)C2=O)cc1` (stereo not drawn), -14.2%.
For the compound `CCCCn1nnc(NC(=O)C(c2ccccc2)c2ccccc2)n1`, the “hERG current change (%, negative = inhibition) at 1uM” value is given as 11.2%.
To `CN(Cc1ccccc1)C(NC(=O)c1ccco1)C(Cl)(Cl)Cl` (stereo not drawn) belongs 14.9%.
With `COc1ccc(-c2nc3cc(C)ccn3c2NC(=O)c2ccccc2OC)cc1` the figure was 12.1%.
With `COc1ccc(CONS(=O)(=O)c2ccc(NC(C)=O)cc2)cc1Cl` the figure was -3.94%.
As for `CCN1CCN(c2ccc(NC(=O)c3ccc4c(c3)[nH]c(=O)n4Cc3ccc(F)cc3)cc2)CC1`, the “hERG current change (%, negative = inhibition) at 1uM” value was -2.24%.
To `O=[N+]([O-])c1ccc2c(c1)nc1n2CCN(C2CCCCC2)C1` belongs -1.75%; to `Cc1ccc(C)c(-n2nnnc2SCC(=O)NCC2CCCO2)c1` (stereo not drawn), 8.99%; to `COc1cccc(Cn2cc(/C=N/NC(=O)c3cc(O)cc(O)c3)c3ccccc32)c1`, 11%.
To `CC1=[N+]([O-])C(C)(C)CC(C)(C)c2ccccc21` belongs 8.62%; to `COC(=O)c1ccccc1NC(=O)[C@@H]1CCC(=O)N1C1OC(=O)c2c1ccc(OC)c2OC` (stereo partly drawn), 10.2%.
Take `COc1ccc(NC(=O)C2CC(=O)n3ncnc3N2)cc1` (stereo not drawn): the “hERG current change (%, negative = inhibition) at 1uM” value came to 4.49%.
In the case of `Cc1c(C#N)c(N)nc(Cl)c1C#N`, the “hERG current change (%, negative = inhibition) at 1uM” value is recorded as 11.2%.
Consider `COC(=O)c1ccccc1NC(=O)CN1CCCCC1`, for which the “hERG current change (%, negative = inhibition) at 1uM” value worked out at 32.9%.
For `COc1ccc(CCNC(=O)[C@H](CCSC)NC(=O)N2CCn3c2nc2ccccc23)cc1OC`, the “hERG current change (%, negative = inhibition) at 1uM” value is on record as 12%.
To `CC1(OC(=O)c2cccs2)C(=O)C=C2C=C(c3ccc(C#N)cc3)OC=C2C1=O` (stereo not drawn) belongs 7.98%; to `CC1CCCC(C)N1C(=O)c1ccccc1Nc1ccc(SC(F)F)cc1` (stereo not drawn), 5.69%.
With `CCC(Sc1ccc2nnc(CCNS(=O)(=O)c3ccc(OC)cc3)n2n1)C(=O)OC` (stereo not drawn) the figure was 3.39%.
To `COc1ccc(CC(=O)c2ccc(O)cc2O)cc1OC` belongs 9.41%; to `Cc1cc(NC(=O)c2ccco2)ccc1NC(=O)Cc1cccs1`, -3.62%.
On to `Cc1ccc(-c2cnco2)cc1`, for which the “hERG current change (%, negative = inhibition) at 1uM” value came to 10.4%.
For `O=C(CSC1=NS(=O)(=O)c2ccccc21)Nc1ccccc1`, the “hERG current change (%, negative = inhibition) at 1uM” value amounted to 10.7%.
With `CCCCN=C1NN=C(c2ccc(C)c(C)c2)CS1`, the “hERG current change (%, negative = inhibition) at 1uM” value came to 12.2%.
`COc1ccc(OCCCCc2c(C)n[nH]c2C)cc1.Cl`: the “hERG current change (%, negative = inhibition) at 1uM” value is reported as 12.1%.
`NC(=O)CC(c1ccccc1)c1ccc2c(c1)OCO2` (stereo not drawn): the “hERG current change (%, negative = inhibition) at 1uM” value amounted to 7.05%.
To `O=C(O)c1ccc(F)c(S(=O)(=O)Nc2ccccc2Cl)c1` belongs 2.86%; to `O=C(NC(=S)Nc1ncc(Br)cc1Br)c1cncc(Br)c1`, 4.04%; to `Cc1nonc1OC(C)CNCCNc1ccc([N+](=O)[O-])cc1.Cl` (stereo not drawn), -15.8%.
